Our source for the binding signal values is paper PMC9911399, “Two distinct binding modes provide the RNA-binding protein RbFox with extraordinary sequence specificity”.

Where a chain is given by its changes, count along the chain named. The list shows a part of the results.

The labels stand for the following.
T1: RBFOX1 RRM (Homo sapiens, UniProt Q9NWB1 109-208)
T1 sequence: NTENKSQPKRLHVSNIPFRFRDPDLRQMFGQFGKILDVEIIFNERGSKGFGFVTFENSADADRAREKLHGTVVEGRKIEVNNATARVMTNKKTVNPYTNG

B1: UCAAUUU (DNA:RNA)
RNA: GGGAGACCGGAAUUCAGAUUGUCCUCAAUUUUUAAAUCCCGUCGUAGCCACCA
DNA 1: CAATCTGAATTCCGGTCTCCC
DNA 2: TGGTGGCTACGACGGGATT
B2: GACAGAC (DNA:RNA)
RNA: B1 RNA with U25G, C26A, A27C, U29G, U30A, U31C
DNA 1: CAATCTGAATTCCGGTCTCCC
DNA 2: TGGTGGCTACGACGGGATT
B3: ACGUGAC (DNA:RNA)
RNA: B1 RNA with U25A, A27G, A28U, U29G, U30A, U31C
DNA 1: CAATCTGAATTCCGGTCTCCC
DNA 2: TGGTGGCTACGACGGGATT
B4: GCGUCGU (DNA:RNA)
RNA: B1 RNA with U25G, A27G, A28U, U29C, U30G
DNA 1: CAATCTGAATTCCGGTCTCCC
DNA 2: TGGTGGCTACGACGGGATT
B5: CCAAAUU (DNA:RNA)
RNA: B1 RNA with U25C, U29A
DNA 1: CAATCTGAATTCCGGTCTCCC
DNA 2: TGGTGGCTACGACGGGATT
B6: CCGGUUU (DNA:RNA)
RNA: B1 RNA with U25C, A27G, A28G
DNA 1: CAATCTGAATTCCGGTCTCCC
DNA 2: TGGTGGCTACGACGGGATT
B7: AGUUAGG (DNA:RNA)
RNA: GGGAGACCGGAAUUCAGAUUGUCCAGUUAGGUUAAAUCCCGUCGUAGCCACCA
DNA 1: CAATCTGAATTCCGGTCTCCC
DNA 2: TGGTGGCTACGACGGGATT
B8: CGGUGUA (DNA:RNA)
RNA: B7 RNA with A25C, U27G, A29G, G30U, G31A
DNA 1: CAATCTGAATTCCGGTCTCCC
DNA 2: TGGTGGCTACGACGGGATT
B9: UUUAGAA (DNA:RNA)
RNA: B1 RNA with C26U, A27U, U29G, U30A, U31A
DNA 1: CAATCTGAATTCCGGTCTCCC
DNA 2: TGGTGGCTACGACGGGATT
B10: CCUAUUA (DNA:RNA)
RNA: B1 RNA with U25C, A27U, U31A
DNA 1: CAATCTGAATTCCGGTCTCCC
DNA 2: TGGTGGCTACGACGGGATT
B11: ACGGACC (DNA:RNA)
RNA: B7 RNA with G26C, U27G, U28G, G30C, G31C
DNA 1: CAATCTGAATTCCGGTCTCCC
DNA 2: TGGTGGCTACGACGGGATT
B12: AUUAUCA (DNA:RNA)
RNA: B7 RNA with G26U, U28A, A29U, G30C, G31A
DNA 1: CAATCTGAATTCCGGTCTCCC
DNA 2: TGGTGGCTACGACGGGATT
B13: CAAGCGA (DNA:RNA)
RNA: B7 RNA with A25C, G26A, U27A, U28G, A29C, G31A
DNA 1: CAATCTGAATTCCGGTCTCCC
DNA 2: TGGTGGCTACGACGGGATT
B14: UUCUUUU (DNA:RNA)
RNA: B1 RNA with C26U, A27C, A28U
DNA 1: CAATCTGAATTCCGGTCTCCC
DNA 2: TGGTGGCTACGACGGGATT
B15: CUCGUAU (DNA:RNA)
RNA: B1 RNA with U25C, C26U, A27C, A28G, U30A
DNA 1: CAATCTGAATTCCGGTCTCCC
DNA 2: TGGTGGCTACGACGGGATT
B16: GCCUAAU (DNA:RNA)
RNA: B7 RNA with A25G, G26C, U27C, G30A, G31U
DNA 1: CAATCTGAATTCCGGTCTCCC
DNA 2: TGGTGGCTACGACGGGATT
B17: CGACUUU (DNA:RNA)
RNA: B1 RNA with U25C, C26G, A28C
DNA 1: CAATCTGAATTCCGGTCTCCC
DNA 2: TGGTGGCTACGACGGGATT
B18: ACUGGAA (DNA:RNA)
RNA: B7 RNA with G26C, U28G, A29G, G30A, G31A
DNA 1: CAATCTGAATTCCGGTCTCCC
DNA 2: TGGTGGCTACGACGGGATT
B19: CCUCGGC (DNA:RNA)
RNA: B7 RNA with A25C, G26C, U28C, A29G, G31C
DNA 1: CAATCTGAATTCCGGTCTCCC
DNA 2: TGGTGGCTACGACGGGATT
B20: CAAUUAG (DNA:RNA)
RNA: B7 RNA with A25C, G26A, U27A, A29U, G30A
DNA 1: CAATCTGAATTCCGGTCTCCC
DNA 2: TGGTGGCTACGACGGGATT
B21: AUCUCUA (DNA:RNA)
RNA: B7 RNA with G26U, U27C, A29C, G30U, G31A
DNA 1: CAATCTGAATTCCGGTCTCCC
DNA 2: TGGTGGCTACGACGGGATT
B22: CAUCUUU (DNA:RNA)
RNA: B1 RNA with U25C, C26A, A27U, A28C
DNA 1: CAATCTGAATTCCGGTCTCCC
DNA 2: TGGTGGCTACGACGGGATT
B23: CUAGGAA (DNA:RNA)
RNA: B1 RNA with U25C, C26U, A28G, U29G, U30A, U31A
DNA 1: CAATCTGAATTCCGGTCTCCC
DNA 2: TGGTGGCTACGACGGGATT
B24: GAUUUAU (DNA:RNA)
RNA: B7 RNA with A25G, G26A, A29U, G30A, G31U
DNA 1: CAATCTGAATTCCGGTCTCCC
DNA 2: TGGTGGCTACGACGGGATT
B25: CUUCCCG (DNA:RNA)
RNA: B7 RNA with A25C, G26U, U28C, A29C, G30C
DNA 1: CAATCTGAATTCCGGTCTCCC
DNA 2: TGGTGGCTACGACGGGATT
B26: UCGGGGC (DNA:RNA)
RNA: B1 RNA with A27G, A28G, U29G, U30G, U31C
DNA 1: CAATCTGAATTCCGGTCTCCC
DNA 2: TGGTGGCTACGACGGGATT
B27: CGGGUGC (DNA:RNA)
RNA: B7 RNA with A25C, U27G, U28G, A29U, G31C
DNA 1: CAATCTGAATTCCGGTCTCCC
DNA 2: TGGTGGCTACGACGGGATT
B28: ACGUCGU (DNA:RNA)
RNA: B7 RNA with G26C, U27G, A29C, G31U
DNA 1: CAATCTGAATTCCGGTCTCCC
DNA 2: TGGTGGCTACGACGGGATT
B29: ACCACUG (DNA:RNA)
RNA: B1 RNA with U25A, A27C, U29C, U31G
DNA 1: CAATCTGAATTCCGGTCTCCC
DNA 2: TGGTGGCTACGACGGGATT
B30: UGUCGAG (DNA:RNA)
RNA: B7 RNA with A25U, U28C, A29G, G30A
DNA 1: CAATCTGAATTCCGGTCTCCC
DNA 2: TGGTGGCTACGACGGGATT
B31: GCCUCCA (DNA:RNA)
RNA: B7 RNA with A25G, G26C, U27C, A29C, G30C, G31A
DNA 1: CAATCTGAATTCCGGTCTCCC
DNA 2: TGGTGGCTACGACGGGATT

The assay concerns the target T1, RBFOX1 RRM. Nature of the assay: EMSA; HiTS-Eq, 1 nM pool, 10 min; buffer printed only for the single-RNA assays: 10 mM Tris pH 7.5, 150 mM NaCl, 3.4 mM EDTA, 0.001% NP-40, 30 C. To be noted: tags: His6 N-terminal (pET28a); label: 5' 32P. In outline: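 These values rest on relative association constants, computed from read-count changes of each RNA species versus the control reaction and normalised to the cognate motif. Reads came from free RNA recovered by 8% native PAGE after purified RbFox RRM (wild type or mutant) at increasing concentrations was equilibrated for 10 min in 50 µL with 1 nM of a 5′-radiolabelled pool with 7 randomized nucleotides and DNA-annealed flanks.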
On the technique in general: In EMSA bound probe runs differently from free probe, usually more slowly.
In the case of B1, the binding signal was 0.00203 KA relative to UGCAUGU. With B2 the figure was 0.0107 KA relative to UGCAUGU. The result for B3 reads 0.00469 KA relative to UGCAUGU; that for B4, 0.0171 KA relative to UGCAUGU; that for B5, 0.00211 KA relative to UGCAUGU. Turning to B6, the binding signal was 0.0121 KA relative to UGCAUGU. The result for B7 reads 0.0129 KA relative to UGCAUGU; that for B8, 0.00859 KA relative to UGCAUGU; that for B9, 0.0115 KA relative to UGCAUGU.

As to B10, the binding signal is 0.00225 KA relative to UGCAUGU.

For the molecule B11, the binding signal was 0.00246 KA relative to UGCAUGU. Consider B12, for which the binding signal is 0.00311 KA relative to UGCAUGU. Regarding B13, the binding signal is 0.00874 KA relative to UGCAUGU. As for B14, the binding signal is 0.0132 KA relative to UGCAUGU.

On to B15, for which the binding signal was 0.00726 KA relative to UGCAUGU.

With B16, the binding signal was 0.0054 KA relative to UGCAUGU. With B17 the figure was 0.00962 KA relative to UGCAUGU. With B18 the figure was 0.00689 KA relative to UGCAUGU.

B19: the binding signal is 0.00992 KA relative to UGCAUGU. With B20 the figure was 0.00613 KA relative to UGCAUGU; with B21, 0.00211 KA relative to UGCAUGU. With B22 the figure was 0.00311 KA relative to UGCAUGU. With B23 the figure was 0.00837 KA relative to UGCAUGU; with B24, 0.00769 KA relative to UGCAUGU; with B25, 0.00669 KA relative to UGCAUGU. Take B26: the binding signal was 0.00877 KA relative to UGCAUGU. The result for B27 reads 0.0369 KA relative to UGCAUGU. Consider B28, for which the binding signal is 0.00803 KA relative to UGCAUGU. With B29 the figure was 0.00176 KA relative to UGCAUGU; with B30, 0.0245 KA relative to UGCAUGU; with B31, 0.000745 KA relative to UGCAUGU.
